From the RNAGym collection of RNA variant scans (doi:10.7554/elife.90254) come the findings set out here.

The source gives no read counts; variants with many changes may rest on few reads.

The chains are these.
B1: OR4K15 (parent)
chain: GUUAACGGUCAUAGGCCAUGGAAACUAGGAGCACCAUUUCGCUGCCAGUGAAGAAAUGAACAAAGAAAAUCUGGGCCAGGCAGGCAUCAAAAGAAAUAGUCUUGCGCUCAACCAGAAAGUCUGUAAUCAUUUUAAGGGUA

The variants in the data set derive from B1. In words: self-cleavage, relative activity (ratio to wild type); higher = more cleavage; in vitro, sequencing; the parent is a self-cleaving ribozyme.
For U19C A22G A36G U70C A116G A117G A126G, the self-cleavage turned out to be 0.12. On to G21U A129U U133C, for which the self-cleavage is 0.65. The value for U19A A30G A59G G106U was 0.04; that for A18U A82G U108C was 0.01; that for U19A A59G A126G was 0.94. Under A22C U43C A90G A125C stands 0; under U19C G29A A30C A51G A118U U122C, 0.54; under U19C A33G U130C, 0.75. The value for U19C A24G A64G was 0.78; that for A18U U103C C128U was 0.

A22G A23G A51G A60G U87C U102C A117U: the self-cleavage stood at 0.79. Under A18U A63G U97C A116G U130C stands 0.24. Under G20A A54G U132C stands 2.49; under A18U U102A A110G A116G, 0. The value for A18U A90G U133C was 1.13. As to A18U U37C A52G U103C, the self-cleavage was 1.81. The value for U19C A54G A92G was 0.9; that for U19C G20A G73A was 0.13; that for G20U A56C A96G A116G U131G was 0.23. Under A18U U26A U49C A91G stands 0.94; under U19C A52G A59U, 1.36; under A18U U39A U43C A59G A89G, 0.64. For A22G A23G A67G U102C, the self-cleavage is 1. The value for U19C G29A A68G was 1.16; that for U19C A62G U70C U102C was 1.33. The value for A18U A95G A98G U139C was 1.36; that for U19C A51G U57G U127G was 0; that for U19A A33U U103C A114G was 0.17. The value for U19C U43A U57C A62U A69G G75A U100C was 0.2; that for U19C A47G A55G was 1.48; that for G21A U38C U108G was 0.01. G20A A27G A60G A96G: the self-cleavage was 0.2. The value for U19C U49C U57C A89U C105A was 0.01. Under U19C A36G A55G A62U U103C stands 1.22; under U19C C32U G115U A140U, 0.1; under U19C U87C A110G A111U, 0.04.

For the variant U19C A52G A60G A69G, the self-cleavage is 1.69. Under U19C A64G A96U U122C stands 1.48; under U19A U43C A62U A135C, 1.06. With G21C U49C A129G A134G, the self-cleavage came to 0.45.

Turning to U19A A62G U72A U108C A114U, the self-cleavage worked out at 0. Under U19C U39A A116C stands 0.16; under G20U U43C G80C, 0.07; under G20A A56G A91G A126G U127C A135G, 0.44. As for U19A A51G A126G, the self-cleavage was found to be 1.17. Under U19C A33G A86G stands 0.69; under U19C U43C A118G U130C, 0.91; under U19A A51G A54U U72C U100C C113A, 0.02. Under U19C U57C U102C stands 1.87; under G20A A54G G106A C128U, 0.02; under A18U U39A A66G A67G, 1.44. Under A18U U37C A52G U102C stands 1.1; under U19C A95U A125U, 1.38; under A18U A90G U103A A125C, 0.05. Regarding U19A A47U A78G, the self-cleavage was determined as 0.21. For the variant U19C A62G A129G, the self-cleavage was 1.14. Under U19A A56G A82G A89G A125G stands 0.09.

Regarding U19A A91G A117G, the self-cleavage is 1.39. The value for U19C U43G A51G A78G A86G U87C U132C was 0.09; that for G20U A90G U127C U132A G137C was 0.45; that for A22C A78U A125G was 0.19. The value for U19C U72C U132C was 0.09; that for A18U A68G A98G was 0.28. Under U19C A117G A126G U131C stands 1.22; under U19A A59G A67U A78U, 0.4. As for U19C A66U A69G A98G U108A U124A, the self-cleavage was 0.02.

For A18U A60G A66G U87C A89G, the self-cleavage amounted to 0.43. Under U19C G21A A52G A66G A118G stands 1.84; under U19C A24G A60G U131C U139C, 1.03; under A18U A59G A96G U100C G136U, 2.34.

In the case of U19A A33G A111G, the self-cleavage was 0.05. A22G A23G C32U U103C: the self-cleavage worked out at 0.84. Under G21A U39C U102C stands 1.92; under U19C A86G C112G U124C, 0.02; under U19A A52G A68G A118U, 0.3. As to U19C A68G A69G, the self-cleavage turned out to be 1.15. Under A18U C42A A47G A86G A117G stands 0.45; under U19G A27G A95G, 1.75. The value for U19C U102C A117G was 2.16; that for A18U C46U A56G A91G was 0.68. Under G20A U39G A82U U131A stands 0.12; under U19C U39C U72A U108C, 0.01; under U19C U57C U124A U133C, 0.46. On to A22C U49C A110G, for which the self-cleavage was 0.17. Under G20A G75C A96G U124C U127C stands 0.02; under U19A A116G A135U, 0.54.

Turning to U19C U72C U122C, the self-cleavage worked out at 0.18.

As to U19C A89G A90U, the self-cleavage worked out at 1.34. Under G20A U49G A54G A64G A90G stands 1.07; under G21A A56G A94G, 1.42; under A18U U70C U100C, 1.97. The value for U19C A68G C77U A82G was 1.29; that for U19A A36G U87C U102C U133C was 2.73.

As to U19A U49A A91G U120C, the self-cleavage is 0.49.

Take G20A G31C A54G A90G A91U A94U: the self-cleavage worked out at 0.67.

Take U19C U43C U127C: the self-cleavage worked out at 0.06. The value for U19C U103A A111U U132A was 0.03; that for A18U A86U A89U was 0; that for A22G A23G A68G A90G was 1.35. In the case of U19C A23G A118G, the self-cleavage came to 0.54. Turning to U19A G44A A118G U130C, the self-cleavage is 0.76.

For G21A U38C C46U A89G U131A, the self-cleavage came out at 1.74. As for G20U A116G A117G U132A, the self-cleavage was determined as 0.35. Under G21A A22G A96G stands 2.41; under A18U U108C U132C, 0; under G20A A95G A111G U133C, 0.06. The value for A18U A64G A89G A92G was 1.51. Under U19C A55G U122C stands 2.05. Regarding A18U U38C G115U, the self-cleavage was found to be 0.07. Under U19C A64G U102C G106A stands 0.02.

As to U19G A54U U124A, the self-cleavage was found to be 0.6. The value for G21U A54U U122A was 2.07; that for U19C A22G A24G U37C was 0.51.

In the case of U19C A52U A94G, the self-cleavage came to 0.82. The value for U19C G21U A96G U120C was 1.01.

In the case of U19C U49C A56G, the self-cleavage was 0.95. For U19C A64U A67G, the self-cleavage is 0.99. Under U19A A78G A94G A118C stands 0.18; under U19C C35U A56C A82G U108A A116G A118G U139A A140U, 0; under U19C U49C A116G G119A, 0.16. Under U19C A33G A69G U87C stands 0.59; under A18U A78G U132A, 0.19; under U19C A27G A30G G48U U102C U132C, 0.75. The value for G20A U37C U39C A59U G93A U124C was 0.7.

Consider G21A A86U A96G, for which the self-cleavage turned out to be 2.34. The value for U19C A64G C77A A126G was 0.72; that for A18U A59G A69G G74A U100C was 0.52; that for G20A A91G A129U was 0.75. As to U19C U43C U87C U124C, the self-cleavage turned out to be 0.86. The value for U19A U72C A114U U131C was 0.01; that for G21A A60G A90G A92G U103G U124A U131C was 0; that for A18U A89G A94G was 1.13. The value for U19G U38C U120C was 0.48; that for A18U A60G C88A was 1.28; that for U19C G75A A82G A114G U130C was 0.02. The value for U19C A47G A52U U87C was 0.98; that for U19A A67G U72C was 0.17; that for U19C A33G A62G A90U A118G was 0.37.

With U19A A33U A51C G80U, the self-cleavage amounted to 0.2. The value for U19C U87A U102C was 2.38. For the variant U19C A23G A89U A135U, the self-cleavage is 1.1. Under A18U U26G U38C A52U A95G A114U stands 0.12. Under A18U A56G A118C stands 0.67; under A18U U39C A90G, 1.09.

Regarding A18U A59G U108C G123A, the self-cleavage amounted to 0.04. Under A18U G50A A86G A116U C121U stands 0.28; under G20A U37C A125G U131C U132C, 0.18.

In the case of A18U A118G A125G, the self-cleavage stood at 0.05. With U19C A78G G106A A129C U133C, the self-cleavage amounted to 0. Consider A18U A55G A126G, for which the self-cleavage is 1.27. Regarding A18U G65A A90G, the self-cleavage was 0.08. Under U19C A47C A62G U108C stands 0.02.

Take U19C A22U A89C C101U: the self-cleavage came out at 0.21.

In the case of A22C A90G U103C A118G, the self-cleavage was 0.06.

In the case of G21A A47U A116G A117C A134G, the self-cleavage stood at 0.03. Under U19C A67G A116G stands 0.41; under A18U G28U A52G A62G A110G, 0.16; under G20A U97A A118U A129U U130C, 0.37. As for U19C U43A A86G A98G A126G, the self-cleavage came to 0.2.

On to U19C A59G A91G, for which the self-cleavage came out at 1.35. Under U19C U26A A47G A59G A62G A116G stands 0.53; under U19C U49A U57C A95G A129G U131C A134G, 1.61. Under U19C A59U G65A U70A stands 1.11; under U19A A22G A92G A117G A118U, 1.73; under U19C A22G U57C U127G, 0.52. Under G20A U43A U130A stands 0.95; under U19A C76U A140G, 0.19.
